# Measurements published in the RNAGym collection of RNA variant scans (doi:10.1093/nar/gkz1192).
# Read counts are not given, so values of variants with three or more changes are uncertain.
# B1: CPEB3 Ribozyme (parent)
# chain: UAACAGGGGGCCACAGCAGAAGCGUUCACGUCGCAGCCCCUGUCAGAUUCUGGUGAAUCUGCGAAUUCUGCUGUAUAUCUC
# Variants of: B1
# Assay: self-cleavage, relative activity (ratio to wild type); higher = more cleavage; in vitro, sequencing
# Method in brief: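 Relative activity compares each variant's cleaved/total read fraction with that of the unmutated ribozyme. To get these fractions, barcoded CPEB3 ribozyme libraries from rounds of error-prone PCR were transcribed with T7 RNA polymerase for 5 hours at 37°C and then given 15 min of DNase I treatment before EDTA was added. The RNAs were reverse transcribed with template switching and sequenced on Illumina, and DNA sequencing linked barcodes to variants. A minimum of 5 reads applied, and three batches were averaged.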
row,Variant,self-cleavage
1,UAACAGGGGGCCACAGCAGAAGCGUACACGUCGCAGCCCCUGUCAGAUUCUGGUGAGUCUGCGAAUUCCGCUGAAUAUCCC,0.54
2,UAACAGGGGGCCACAGCAGAAGCGUACACGUCGCAGCCCCUGUCAGGCUCUGGUGAAUCCGCGAAUUCAGCUGUAUACCUC,0.06
3,UAACAGGGGGCCACAGCAGAAGCGUACACGUCACAGCUCCUGUCAGAUUCUGGUGAAUCUGCGAAUUCUGCUGUAUAUCUC,0.18
4,UAACAGGGGGCCACAGCAGAAGCGUACACGUCGCAGCCCCUGUCAGAUUCUGGUGAAUCUGCGAAUUCUGCUAUAUACCUC,0.95
5,UAACAGGGGGCCACAGCAGAAGCGUACACGACGCAGCCCUUGUCAGAUUCUGGUGAAACUGCGAAUUCUGCGGUAUAUCUC,0.17
6,UAACAGGGGGCCACAGCAGAAGCGUACACGUCGCAGCCCCUGUCUGAUUCUGGUGAAUCCGCGAAUUCUGCUGUAUAUCUC,0.26
7,UAACAGGGGGCCACAGCAGAAGCGUACACGUCGCAGCCCCUGUCAGAUUCUGGUGAGUCUGGGAAUUCUGUUGCAUAUCUC,0.18
8,UAACAGGGGGCCACAGCAGAAGCGUACACGUCGCAGCCCCUGUCAGAUUCUGGUGAAUCUGCAAGUUCUGCUGUAUAUCUC,0.51
9,UAACAGGGGGCCACAGCAGAAGCGUACUCGUCGCAGCCCCUGUCAGAUUCUGGUGAAUCUGCGAAUUCUGCUGUAUACCUC,0.43
10,UAACAGGGGGCCACAGCAGAAGCGUACAAGUCGCAGCCCCUGUCAGAUUCUGGUGGAUCUGCGAAUUCUGCUGUACAUCUC,0.28
11,UAACAGGGGGCCACAGCAGAAGCGUACACGUCGCAGCCCCUUUCAGAUUCUGGUGAAUCUGCGAAGUCUGCUGUAUAUCUC,0.24
12,UAACAGGGGGCCACAGCAGAAGCGUACACGUCGUAGCCCCUGUCAGAUUCUGGUGGAUCUGCGAAUUCUGCUGUAUAUCUC,0.16
13,UAACAGGGGGCCACAGCAGAAGCGGUCACGUCGCGGCCCCAGCCAGAUUCUGGUGAAUCUGCGAAUUCUGCUGUAUAUCUC,0.06
14,UAACAGGGGGCCACAGCAGAAGCGUACACGUCACAGCCCCUGUAAGAUUCUGGUGAAUCUGCGAAUUCUGCUGUAUAACUC,0.19
15,UAACAGGGGGCCACAGCAGAAGCGUACACGUCACAGCCCCUGUCAGACUCUGGUGAAUCUGCGCAUUCUGCUGUAUACCUC,0.09
16,UAACAGGGGGCCACAGCAGAAGCGUACACGUCGCAGCCCCUGUCAGAUUCUGGUGAGUCUGCGAAUUCUGCUGUAAAUCUC,0.57
17,UAACAGGGGGCCACAGCAGAAGCGGUCACGUCGCAGCCCCUGUCAGAUUCUGGUGACUCUGCGAAUACUGCUGUAUAUCUC,0.32
18,UAACAGGGGGCCACAGCAGAAGCGUAUACGUCGCAGCCCCUGUCAGAUCCUGGUGAAUCUGCGAGUUCUGCUGUAUAUCUC,0.12
19,UAACAGGGGGCCACAGCAGAAGCGUACUCGUCGCAGCCCCUGUCAGAUUCUGGUGAAUCUGCGAACUCUGCUGUAUGUCUC,0.11
20,UAACAGGGGGCCACAGCAGAAGCGUACACGUCGCAGCCCCUGUGAGAUUCUGGUGAAUCUGCGAAUUCUGCUGUAUAUCCC,0.9
21,UAACAGGGGGCCACAGCAGAAGCGUACACGUCGCAGCCCCUGUCCGAUUCUGGUGAAUCUGCGAAUUCUGCUGUACACCUC,0.09
22,UAACAGGGGGCCACAGCAGAAGCGUACACGUCGCAGCCCCUGUCAGAUUCUGGUAAAUCUGCGAAUUCUGCUGUACAUCUC,0.93
23,UAACAGGGGGCCACAGCAGAAGCGGUCACGUCGCAGCCCCCGUCAGAUCCUGGUGAAUCUGCGAAUUCUGCUGUGUACCUC,0.09

row,Variant,self-cleavage
1,UAACAGGGGGCCACAGCAGAAGCGUACACGUCGCAGCCCCUGUCAGGUUCUGGUGAAUCUGCGAGUUCUGCUGUAUAUCUC,0.51
2,UAACAGGGGGCCACAGCAGAAGCGUACGCGUCGCAGCCCCUGUCAGAUUCUGGUGAAUCUGCGGAUCCUGCUGUAUAUCUC,0.14
3,UAACAGGGGGCCACAGCAGAAGCGGUCACGUCGCAGCCCUUGUCAGAUUCUGGUGAAUCUGCGAAUUCUGCUGCAUAUCUC,0.35
4,UAACAGGGGGCCACAGCAGAAGCGUACACGUCGCAGCCCUUGUCAGAUCCUGGUCAAUCUGCGAAUUCUGCUGUAGAUCCC,0.06
5,UAACAGGGGGCCACAGCAGAAGCGGUCACGUCGCAGCCCCUGUCAGAUUCUGGAGAAUCUGCGAAUUCUGCUGUAUAUCAC,0.44
6,UAACAGGGGGCCACAGCAGAAGCGGUCACGUCGCAGCCCCUGACAGACUCUGGUGAAUCUGCGAACUCUGCGGUAUAUCCC,0.02
7,UAACAGGGGGCCACAGCAGAAGCGUACACGUCGCAGCCCCUGUCGGAUUCUGGUGAGUCUGCGAAUUCUGCUGUAUAUCUC,0.46
8,UAACAGGGGGCCACAGCAGAAGCGUACACGUCGCAGCCCCUGUCAGAUUCUGGUGAAUCUGCGGAUUCUGCAGUAUAUCUC,0.34
9,UAACAGGGGGCCACAGCAGAAGCGUACACGUCGCAGCCCCUGUCAGAUUCUGGUGAGUCUGCGAACUCUGCUGUAUACCUC,0.13
10,UAACAGGGGGCCACAGCAGAAGCGUACUCGUCGCAGCCCUUGUCAGAUUCUAGUGAGUCUGCGAAUUCUGCUGUAUAUCUC,0.12
11,UAACAGGGGGCCACAGCAGAAGCGUACACAUCGCAGCCCCUGUCUGACUCUGGUGAAUCUGCGAAUUCCGCCGUAUAUCUC,0.08
12,UAACAGGGGGCCACAGCAGAAGCGGUCACGUCGCAGCCCCUGUCGGAUUCUGGUGAAUCUGCGAAUUCUGCAGUAUAUCUC,0.28
13,UAACAGGGGGCCACAGCAGAAGCGUACUCGUCGCAGCCCCUGUCAGAUUCUGGUGAAUCUGCGAAUUCUGCUGUAUCUCCC,0.47
14,UAACAGGGGGCCACAGCAGAAGCGUACACGUCGCAGCACAUGUCAGAUUCUGGUGGAUCUGCGAAUUCUGCUGUAUAUCUC,0.1
15,UAACAGGGGGCCACAGCAGAAGCGGUCACGUCGCUGCCCCUGUCAGAUUCUGGUGAAUCUGCGAAUUCUGCUGUAUAUCGC,0.11
16,UAACAGGGGGCCACAGCAGAAGCGUACACGUCGCAGCUCCUGUCAGAUCCCGGUGGAUCUGCGAAUUCUGCUGUAUACCUC,0.13
17,UAACAGGGGGCCACAGCAGAAGCGUACACGUCGCGGCCCCCGUCAGAUCCUGGUGAAUCUGCGAACUCUGCUGUAUAUCCC,0.24
18,UAACAGGGGGCCACAGCAGAAGCGUACGCGUCGCAGCCCCUGCCAGAUUCUGGUGAAUCUGCGAAUUCUGCUGUUUAUCUC,0.09
19,UAACAGGGGGCCACAGCAGAAGCGUACACGUGGCAGCCCCUGUCAGAUUCUGGUGAAUCUGCGAAUUCCGCUGUAUAUCUC,0.09
20,UAACAGGGGGCCACAGCAGAAGCGUACACGUCGCGGCCCCUGUCAGAUUCUGGUGAAUCUGCGAAUUCUGCUGUAUACCUC,1.31
21,UAACAGGGGGCCACAGCAGAAGCGUACACGUCACAGCCCCUGUCAGAUUCCGGUGAAUCUGCGAACUCUGCUGUAUAUCUC,0.05
22,UAACAGGGGGCCACAGCAGAAGCGUACACGUCGCAGCCCUUGUCAGGUUCUGGUGAGUCUACGAAUUCUGCUGUAUACCUC,0.05
23,UAACAGGGGGCCACAGCAGAAGCGUACACGUCGCAGCCCCUGUCAGGUACUGCUGAAUCUCCGAAUUCUUCUGCAUAUCUC,0.12

row,Variant,self-cleavage
1,UAACAGGGGGCCACAGCAGAAGCGGUUACGUCGCAACCCCUGUCAGAUUCUGGUGGAUCUGCGAAUUCUGCUGUAUAUCUC,0.24
2,UAACAGGGGGCCACAGCAGAAGCGUACACGACGCAGCCCCCGUCAGAUUCUGGUGAAUCUGCGAAUUCUGCUGUAUAUCUC,0.32
3,UAACAGGGGGCCACAGCAGAAGCGUACACGUCGCUGCUCCUGUCAGAUUCUGGUGAAUCUGCGAAUUCUGCUGUUUAUCUC,0.2
4,UAACAGGGGGCCACAGCAGAAGCGUACGCGUCGCAGCCCCUGUCAGAUUCUGGCGAAUCUGCGAAUCCUGCUGUAUAUCUC,0.09
5,UAACAGGGGGCCACAGCAGAAGCGUACACGUCGCAGCCCCUGUCAGAUUCUGGUGAAUCUGCGAGUUCUGCUGUAUACCUC,0.25
6,UAACAGGGGGCCACAGCAGAAGCGUACACGUCGCAGCCCCUGUCAGGUUCUGGUGAAUCUGCGAAUUCUGCCGUAUACCUC,1
7,UAACAGGGGGCCACAGCAGAAGCGGUCACGUCGCAGCCCCUGUCAGAUUCCGGUGAAUCUGCGAGUUCUGCUGUAUAUCUC,0.18
8,UAACAGGGGGCCACAGCAGAAGCGGUCACGUCGCAGCCCCUGUCAGAUUCCGGUGAAUCUGCGAUUUCUGCUGUAUAUCUC,0.15
9,UAACAGGGGGCCACAGCAGAAGCGUACACGUCGCAGCCGCUGUCGGAUUCUGGUGAAUCUGCGAAUUCUGCCGUAUAUCUC,0.05
10,UAACAGGGGGCCACAGCAGAAGCGUACACGUCGCUGCCCCCGUCAGAUUCUGGUGAAUCUGCGAAUUCUGCUUUAUAUCCC,0.6
11,UAACAGGGGGCCACAGCAGAAGCGUACACGUCGCAGCCCCUGUCCGAUUCUGGUGAACCUGCGAAUUCUGCUGUAUAUCUC,0.05
12,UAACAGGGGGCCACAGCAGAAGCGUACACGUCGCAGCCCCUGUCAGAUUCUGGUGAGUCUGCGAAUUCAGCUGUAUAUCUC,0.37
13,UAACAGGGGGCCACAGCAGAAGCGGACACGUCGCAGCCCCUGUCAGAUUCUGGUGAGUCUGCGAAUUCUGCUGUAUAUCUC,0.1
14,UAACAGGGGGCCACAGCAGAAGCGUACACGUCGCAGCCCCUGUCAGAUUCUGGUGAGUCUGCGAAUCCUGCUGUAUAUCUC,0.47
15,UAACAGGGGGCCACAGCAGAAGCGUACACGACGCAGUCCCUGUCAGAUUCUGGUGAAUCUGCGUAUUCUCCUGUAUACCUC,0.05
16,UAACAGGGGGCCACAGCAGAAGCGUACACGUCGCAGCCCCUGUCAGAUUCUGGUUAAUCCGCGAAUUCUGCUGUAUAUCUC,0.22
17,UAACAGGGGGCCACAGCAGAAGCGUACACAUCGCAGCCCCUGUCAGAUUCUGGCGAAUCUGCGAAUUCUGCUGUAUAUCUC,0.17
18,UAACAGGGGGCCACAGCAGAAGCGUACACGUCUCAGCCCCUGUCAGAUUCUGGUGCAUCUGCGAAUUCUGCUGUAUAUCUC,0.11
19,UAACAGGGGGCCACAGCAGAAGCGUACAUGUCGCAGCCCCUGACAGAUUCUGGUGAAUCUGCUGAUUCUGCUGUAGUUCUC,0.1
20,UAACAGGGGGCCACAGCAGAAGCGUACGCGCCGCAGCCCCUGUCAGAUUCUGGCGAAUCUGCGAAUUCUGCUGUAUAUCUC,0.12
21,UAACAGGGGGCCACAGCAGAAGCGGUCACGUCGCUGCCCCUGUCAGAUUCUGGUGAAUCUGCGAGUUCUGCUGUAUAUCUC,0.19
22,UAACAGGGGGCCACAGCAGAAGCGUACACGUCGCAGCUCCUGUCAGAUUUUGGUGAAUCUGCGAAUUCUGCUGUAUAUCUC,0.3
